Measured values as given in PubChem BioAssay AID360 (National Center for Advancing Translational Sciences (NCATS), 2006).
Hit rate of the full screen: of about 48,000 compounds, about 550 (1.1%) were called active. Not shown: some 4% with an inconclusive outcome. Cut-off read from the data, not from the text of the source: active = potency below about 15 µM; inconclusive = mostly about 16 µM to 33 µM; inactive = weaker than that. The list shows a part of the results.

These compounds were tested against Lysosomal acid glucosylceramidase (Homo sapiens) (UniProt P04062) (assay: Glucocerebrosidase). Conditions: purified enzyme, resorufin glucoside fluorescence (screen aimed at inhibitors), 20 min.
Sequence of UniProt P04062 (P04062 whole entry, looked up): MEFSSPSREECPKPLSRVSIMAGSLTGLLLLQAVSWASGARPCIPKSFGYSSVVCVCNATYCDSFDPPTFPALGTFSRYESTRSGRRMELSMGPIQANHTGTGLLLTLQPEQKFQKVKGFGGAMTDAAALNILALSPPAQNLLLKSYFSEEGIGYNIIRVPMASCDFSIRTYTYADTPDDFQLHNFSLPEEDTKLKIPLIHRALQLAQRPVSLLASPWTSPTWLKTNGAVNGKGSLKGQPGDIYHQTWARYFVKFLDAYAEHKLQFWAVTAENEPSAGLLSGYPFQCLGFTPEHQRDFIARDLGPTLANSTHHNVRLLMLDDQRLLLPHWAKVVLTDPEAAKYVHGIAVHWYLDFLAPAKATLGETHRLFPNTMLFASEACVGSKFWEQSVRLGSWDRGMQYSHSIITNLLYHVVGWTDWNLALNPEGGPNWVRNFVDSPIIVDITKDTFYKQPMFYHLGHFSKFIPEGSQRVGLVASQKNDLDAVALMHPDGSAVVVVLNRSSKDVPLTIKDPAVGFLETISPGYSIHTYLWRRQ
How it was run: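 Wild-type enzyme at 0.2 nM final in 50mM citric acid/KH2PO4, 10mM sodium taurocholate, 0.01% tween-20, pH 5.9, with resorufin beta-D-glucopyranoside at 30 uM final. Compounds titrated, 20 min at RT, red fluorescence read; AC50 from titration.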
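Note: the screen sought inhibitors.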
Potency is the fitted concentration of half-maximal effect.

Potency, inactive:
CCOC(=O)N1CCN(C(=O)c2ccc3nc4ccc(Cl)cc4c(=O)n3c2)CC1 > 76.9 µM, CC1=CC(C)(C)C(C(=O)O)C(C(=O)O)C1 (configuration not stated) > 76.9 µM, CC(Sc1nncs1)C(=O)NCc1ccc2c(c1)OCO2 (configuration not stated) > 76.9 µM, CN1C(c2ccc(F)cc2)=CS/C1=C(\C#N)c1nnc2n1-c1ccccc1SC2 > 76.9 µM, CCCN1CCN(CCCNC(=O)C2CCCN(c3nnc(-n4cccc4)s3)C2)CC1 (configuration not stated) > 76.9 µM, COc1ccc(-c2[nH]ncc2-c2ccc(Cl)cc2)c(O)c1 > 76.9 µM, Cc1ccc(-c2nnc3c4ccccc4c(C)nn23)cc1NC(=O)CN1CCOCC1 > 76.9 µM, Cc1oc2c(CN3CCCC3)c(O)ccc2c(=O)c1Oc1ccccc1Br, Cn1c(CNc2ccc(Cl)cc2)nnc1SCc1ccccc1 > 76.9 µM, CCn1c(C(=O)OC)cc2c1ccn2-c1ccc(F)cc1 > 76.9 µM, COCCn1c(SCc2nnc(-c3ccccc3)o2)nc2sc3c(c2c1=O)CCC3 > 76.9 µM, CCN(CC)S(=O)(=O)c1cc(C)c(C)cc1Br > 76.9 µM, Cc1cc(C)c(C#N)c(N2CCCC(C(N)=O)C2)n1 (configuration not stated) > 76.9 µM, Cc1ccc(S(=O)(=O)N2CCN(C(=O)C3CCCCC3)CC2)cc1 > 76.9 µM, Cc1ccc(NS(=O)(=O)c2ccc(C)c(C(=O)N3CCN(C)CC3)c2)cc1 > 76.9 µM, COc1ccc(Cl)cc1NC(=O)N1CCN(C2CCCCC2)CC1 > 76.9 µM, COc1ccc(CCn2c(-c3ccco3)nc3nc4ccccc4nc32)cc1OC > 76.9 µM, CC(C)Nc1nc(NC(C)C)nc(N(C)C#N)n1 > 76.9 µM, O=C(NCCCN1CCN(CCCNC(=O)c2ccc(F)cc2)CC1)c1ccc(F)cc1 > 76.9 µM, O=C(O)C1Cc2ccccc2CN1C(=O)c1ccccc1 (configuration not stated) > 76.9 µM, c1ccc(CCc2nn3c(-c4ccncc4)nnc3s2)cc1 > 76.9 µM, CCOC(=O)CCc1c(C)nc2cc(-c3ccc(Cl)cc3)[nH]n2c1=O > 76.9 µM, O=C(Nc1ccc2c(c1)OCO2)c1ccc(Br)c(S(=O)(=O)N2CCCC2)c1 > 76.9 µM, Cc1cccc2cc(COC(=O)c3cccnc3)c(=O)[nH]c12 > 76.9 µM, Cc1nnc(SCc2nc3ccccc3s2)n1-c1ccccc1 > 76.9 µM, CCN1CCN(CNC(=O)c2cnccn2)CC1 > 76.9 µM, CCN(CC)S(=O)(=O)c1cc(C(=O)Nc2ccccn2)ccc1C > 76.9 µM, Cn1c(=S)n(/N=C/c2ccc3c(c2)OCO3)c2ccccc21 > 76.9 µM, O=C(CSc1ncccn1)Nn1cnnc1 > 76.9 µM, CCOCCCNC(=O)N[C@@H](Cc1ccccc1)C(=O)OC > 76.9 µM, CCOc1cc(-c2noc(-c3ccncc3)n2)cc(Br)c1OC > 15.4 µM, CCCCSc1nnc(C)c(=O)[nH]1 > 76.9 µM, c1ccc(-n2c(Sc3cnccn3)nnc2-c2cccs2)cc1 > 76.9 µM, CCOC(=O)C1CCN(c2c(NCCCN(CC)Cc3ccccc3)c(=O)c2=O)CC1 > 76.9 µM, Cn1c(=O)c2c(nc(Br)n2Cc2c(F)cccc2Cl)n(C)c1=O > 76.9 µM, O=S1(=O)c2cccc3cccc(c23)N1Cc1nnc(-c2ccccc2Br)o1 > 76.9 µM, Cc1cc2c(cc1C)-c1nnnn1C(C)(C)C2 > 76.9 µM, CN(C)C=Nc1c(Br)cc(Br)c2nonc12 > 76.9 µM, CS(=O)(=O)Nc1cccc(C(=O)CC2(O)C(=O)Nc3ccc(Br)cc32)c1 (configuration not stated) > 76.9 µM, COCCCn1nnnc1SCC(=O)Nc1nc(C)c(C)s1 > 76.9 µM, CSc1oc(-c2ccccc2)nc1C(N)=O > 76.9 µM, Cc1cc(OCC(=O)Nn2cnnc2)c(C)cc1Br > 76.9 µM, Cc1nc2c([nH]c3ccc(Br)cc32)s1 > 76.9 µM, COc1ccc(Cl)cc1NC(=O)N1CCN(CCc2ccccc2)CC1 > 76.9 µM, Cc1ccccc1CN1C2=NCCN2c2ccccc21 > 76.9 µM, COc1cccc(OCc2nc3ccccc3c(=O)n2N)c1 > 76.9 µM, CCOc1cc(C)c(C(C)C)cc1S(=O)(=O)N1CC(C)OC(C)C1 (configuration not stated) > 76.9 µM, CC(=O)NC12CC3CC(C1)CC(C(=O)OCC(=O)NC(=O)c1cccn1C)(C3)C2 > 76.9 µM, CSc1nc2n(n1)C(c1cc(Br)ccc1F)C(C(=O)N(C)C)=C(C)N2 (configuration not stated) > 76.9 µM, CCOC(=O)c1cc(CC)sc1NC(=O)COC > 76.9 µM, CCOC(=O)Cc1csc(NC(=O)CCc2ccc(S(=O)(=O)N3CCOCC3)cc2)n1 > 76.9 µM, CCc1nnc(NC(=O)CSc2nnc(C)n2CC2CCCO2)s1 (configuration not stated) > 76.9 µM, Cc1ccc(C(=O)CSc2nnc(CNc3ccc(C)cc3C)n2Cc2ccco2)cc1 > 76.9 µM, O=C(Nc1ccc(N2CCOCC2)cc1N1CCOCC1)c1ccco1 > 76.9 µM, CCS(=O)(=O)N1CCN(C(=O)c2ccc(-c3ccccc3)cc2)CC1 > 76.9 µM, COc1ccc(NC(=O)CSc2nnc(CNC(=O)COc3ccc(Cl)cc3)o2)c(OC)c1 > 76.9 µM, COc1ccc(OC)c(-n2nnnc2SCC(=O)NCc2ccc3c(c2)OCO3)c1 > 76.9 µM, Cc1cc(C)c(NC(=O)CSc2nnc(-c3ccco3)n2N)c(C)c1 > 76.9 µM, COC(=O)[C@H](C)NC(=O)Nc1ccc(Oc2ccccc2)cc1 > 76.9 µM, Cc1cc(NC(=O)CSc2nnc3c(C)cc4ccccc4n23)no1 > 76.9 µM, CCn1c(CNC(=O)c2ccc(OC)c(OC)c2)nnc1SCC(=O)Nc1ccccc1 > 76.9 µM, Cc1cc(C)c2cc(CN(CCO)C(=O)Nc3ccc(Cl)cc3)c(=O)[nH]c2c1 > 76.9 µM, CCS(=O)(=O)N1CCCC(C(=O)NCCCN2CCCC2=O)C1 (configuration not stated) > 76.9 µM, CCC(=O)N(Cc1cc2cc(C)c(C)cc2[nH]c1=O)C1CCCCC1 > 76.9 µM, Cc1nnc(SCC(=O)Nc2nsc(-c3ccccc3)n2)s1 > 76.9 µM, COc1ccccc1CNC(=O)Cn1nnc(-c2ccncc2)n1 > 76.9 µM, COc1ccc(C2C(=O)N(CCc3ccccc3)CC(=O)N2C2CCCC2)cc1 (configuration not stated) > 76.9 µM, O=C(Nc1ccccc1)N1CCCCC1c1cccnc1 (configuration not stated) > 76.9 µM, COc1ccc(NC(=O)C(NS(=O)(=O)c2ccc3c(c2)CCCN3C(C)=O)C(C)C)c(OC)c1 (configuration not stated) > 76.9 µM, C=CCn1c(C(C)NC(=O)CC)nc2ccccc21 (configuration not stated) > 76.9 µM, Cc1ccc2cc(CN(Cc3ccccc3)Cc3nnnn3C3CCCC3)c(=O)[nH]c2c1 > 76.9 µM, Cc1cc(NC(=O)Nc2ccc(F)c(Cl)c2)no1, COC(=O)c1c(C)[nH]c(C(C)=O)c1C > 76.9 µM, Clc1ccc(Oc2nc(N3CCOCC3)nc(N3CCOCC3)n2)c(C2CCCCC2)c1 > 76.9 µM, O=C(CCSc1ccc(F)cc1)Nc1ccc(-n2cnnn2)cc1, O=C(CSCCc1ccccn1)Nc1cccnc1 > 76.9 µM, CCOc1ccc(CCNC(=O)C(CC)n2nc(C)n3c(cc4sccc43)c2=O)cc1OCC (configuration not stated) > 76.9 µM, CC(C)Cn1c(-c2cccs2)nc2nc3ccccc3nc21 > 76.9 µM, COc1ccc(CN2C(=O)CN=C2Nc2ccc(C)cc2C)cc1 > 76.9 µM, CCOc1ccc(N2CCCCn3c2nc2c3c(=O)[nH]c(=O)n2C)cc1 > 76.9 µM, COCCn1c(C)cc(C(=O)CSc2nc3ccccc3c(=O)[nH]2)c1C > 76.9 µM, O=C(CCN1C(=O)C2C3C=CC(C3)C2C1=O)Nc1ccccc1F (configuration not stated) > 76.9 µM, COc1ccc(S(=O)(=O)N(C)CC(=O)NC2CCCCC2)cc1OC > 76.9 µM, C/C(=C\C(=O)c1ccc(F)cc1)Nc1ccc(N2CCOCC2)cc1 > 76.9 µM, CCOC(=O)N1CCN(C(=O)COc2ccc(S(=O)(=O)NC3CCCCC3)cc2C)CC1 > 76.9 µM, COc1ccc(NC(=O)CSc2nnc(-c3ccccc3C)n2N)cc1OC > 76.9 µM, COC(=O)COc1ccc(S(=O)(=O)Nc2ccccc2SC)cc1 > 76.9 µM, COc1ccccc1Oc1coc2c(CN3CCN(C)CC3)c(O)ccc2c1=O > 76.9 µM, c1ccc(Cn2nnnc2CN2CCN(Cc3ccc4c(c3)OCO4)CC2)cc1 > 76.9 µM, O=C1CC(c2cccc(Oc3ccccc3)c2)NC(=O)N1 (configuration not stated) > 76.9 µM, Cc1[nH]c2ccccc2c1C(=O)CN1CCN(C2CCCCC2)CC1 > 76.9 µM, OCC1(CO)COC2(CCCC2)N1 > 76.9 µM
